Laboratory results as given in patent US20250136680A1 (SHANGHAI QILU PHARMACEUTICAL RESEARCH AND DEVELOPMENT CENTRE, published 2025).

Tests used:
[1] = target: T1, human CD3 (hCD3) naturally expressed on Jurkat cells (human, UniProt P07766); test: flow cytometry (FACS) on Jurkat cells naturally expressing hCD3
T1 construct: whole, on cells; on the cells it is part of the whole TCR/CD3 complex; also called Jurkat cell line

[2] = target: human CD3 (purchased from Acro, Cat. No. CDD-H52W1) (human, UniProt P07766 23-126); test: SPR (Biacore 8K), CD3 immobilised directly on CM5, bispecific as analyte, 1:1 Langmuir fit
[3] = target: T2, cynomolgus CD3 (purchased from Acro, Cat. No. CDD-C52W4) (cynomolgus, UniProt Q95LI5 22-117); test: as above
T2 sequence (looked up): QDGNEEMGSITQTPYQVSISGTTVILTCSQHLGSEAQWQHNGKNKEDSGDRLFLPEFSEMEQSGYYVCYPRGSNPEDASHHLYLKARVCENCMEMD

[4] = target: T3, cynomolgus DLL3 (purchased from Kaixia, Cat. No. DLL-RM103) (cynomolgus, UniProt A0A2K5WSR1 27-490); test: SPR (Biacore 8K), bispecific captured by anti-human Fc on CM5, DLL3 as analyte, 1:1 Langmuir fit
T3 construct: Bought recombinant protein
T3 sequence: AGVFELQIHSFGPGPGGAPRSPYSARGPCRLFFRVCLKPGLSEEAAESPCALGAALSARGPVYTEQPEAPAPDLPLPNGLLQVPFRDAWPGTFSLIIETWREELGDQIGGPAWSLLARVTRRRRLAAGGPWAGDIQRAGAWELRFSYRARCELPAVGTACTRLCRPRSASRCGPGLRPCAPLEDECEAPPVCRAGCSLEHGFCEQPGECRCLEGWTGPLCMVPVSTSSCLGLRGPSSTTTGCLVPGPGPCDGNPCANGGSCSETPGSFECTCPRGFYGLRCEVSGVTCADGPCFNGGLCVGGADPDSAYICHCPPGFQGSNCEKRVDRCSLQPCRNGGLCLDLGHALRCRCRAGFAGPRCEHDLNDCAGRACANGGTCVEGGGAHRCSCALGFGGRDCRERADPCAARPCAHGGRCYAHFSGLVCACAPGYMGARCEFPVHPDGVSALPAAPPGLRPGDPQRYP

B1: Bispecific antibody 1 (bispecific antibody)
chain: EVQLVESGGGLVQPGGSLRLSCAASTYTISSGYMGWFRQAPGKEREGVAAIYIGGSTTLYADSVKGRFTISRDNSKNTLYLQMNSLRAEDTAVYYCAAQLRPNAAYHPLDGRKYNYWGQGTLVTVSSGGGGSEVKLVESGGGLVQPGGSLKLSCAASGFTFNTYAMNWVRQAPGKGLEWVARIRSKYNNYATYYADSVKDRFTISRDDAKNTLYLQMNNLRTEDTAVYYCVRHGNFGNSYVSWFAYWGQGTLVTVSSGGGGSGGGGSGGGGSQAVVTQEPSLTVSPGGTVTLTCRSSTGAVTTSNYANWVQQKPGQAPRGLIGGTNKRAPGTPARFSGSLLGGKAALTLSGAQPEDEAEYYCALWYSNLWVFGGGTKLTVL[here human IgG1 Fc with changes without letters]
notes: Two homologous chains, each anti-DLL3 VHH (from hDLL3-3-1-NA) fused to the anti-CD3 scFv of h160C9AA and an IgG1 Fc with L234A/L235A; also called anti-CD3-DLL3 bispecific antibody; DLL3 VHH-(G4S)-CD3VH-(G4S)3-CD3VL-(EPKSS)-IgG1 Fc
B1 gave an EC50 [1] of 5.28 nM, a Kd [2] of 0.246 nM and a koff [2] of 0.000784 s⁻¹. The Kd [3] was 0.24 nM, the koff [3] was 0.000611 s⁻¹ and the Kd [4] was 4.15 nM. It also gave a koff [4] of 0.00132 s⁻¹ and a kon [4] of 319000 M⁻¹ s⁻¹.
